Some of the results follow. Repeats are few or missing, and single values can be far off.
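Also: cells treated in 1,536-well plates, then fixed and DAPI-stained, with nuclei counted from automated high-throughput microscope images.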

The test system of the experiment is 501Mel. Put plainly: cell count relative to DMSO control; melanoma cells; higher = more viable cells. As to conditions: library dose: standard library concentration; 72 h.
`OCCn1cc(-c2cnc3nnn(Cc4ccc5ncccc5c4)c3n2)cn1` + CCc1ccc(CCOc2ccc(CC3SC(=O)NC3=O)cc2)nc1 [pioglitazone] (first compound 5 µM, partner dose 10 µM) gave a cell count of 93%.

The compound `NCC(=O)Nc1ccc(-n2nc(C(F)(F)F)cc2-c2ccc3c(ccc4ccccc43)c2)cc1` + Cc1cc([N+](=O)[O-])ccc1NS(=O)(=O)c1cc(Cl)ccc1Cl [FH535] (first compound 5 µM, partner dose 5 µM) had a cell count of 0.611%.

On to `Cc1nc(Nc2ncc(C(=O)Nc3c(C)cccc3Cl)s2)cc(N2CCN(CCO)CC2)n1` [dasatanib] + COc1cc(N2CCC(N3CCN(C)CC3)CC2)ccc1Nc1ncc(Cl)c(Nc2ccccc2S(=O)(=O)C(C)C)n1 [NVP-TAE684] (first compound 0.02 µM, partner dose 0.4 µM), for which the cell count came to 60.9%.

Regarding `CO[C@@H]1[C@H](N(C)C(=O)c2ccccc2)C[C@H]2O[C@]1(C)n1c3ccccc3c3c4c(c5c6ccccc6n2c5c31)C(=O)NC4` [Midostaurin] + Oc1nc(-c2ccc(C(F)(F)F)cc2)nc2c1CSCC2 [XAV939] (first compound 0.4 µM, partner dose 10 µM), the cell count stood at 80.4%.

`OCCn1cc(-c2cnc3nnn(Cc4ccc5ncccc5c4)c3n2)cn1` + N#Cc1c(O)c2c(-c3ccc(-c4ccccc4O)cc3)csc2[nH]c1=O [A769662] (first compound 5 µM, partner dose 10 µM) gave a cell count of 81.6%.

With `C[C@]1(c2nc3c(C(N)=O)cccc3[nH]2)CCCN1` [Veliparib] + COC(=O)c1sccc1S(=O)(=O)Nc1ccc(Nc2ccccc2)cc1OC [GSK0660] (first compound 7 µM, partner dose 5 µM), the cell count came out at 141%.

On to `Cc1nc(Nc2ncc(C(=O)Nc3c(C)cccc3Cl)s2)cc(N2CCN(CCO)CC2)n1` [dasatanib] + COc1ccc(COc2ccc(Cc3cnc(N)nc3N)cc2OC)cc1 [GW2580] (first compound 0.02 µM, partner dose 5 µM), for which the cell count came out at 91.4%.

Consider `CN(C)S(=O)(=O)c1ccc2c(c1)/C(=C/c1cc3c([nH]1)CCCC3)C(=O)N2` + COc1ccc2c(c1)CCC1C2CCC2(C)C(NCCCCCCN3C(=O)C=CC3=O)CCC12 [U73122] (first compound 2 µM, partner dose 2 µM), for which the cell count was 62.8%.

Regarding `NCC(=O)Nc1ccc(-n2nc(C(F)(F)F)cc2-c2ccc3c(ccc4ccccc43)c2)cc1` + O=C1NC(=O)/C(=C/c2ccc(-c3ccc(F)cc3O)o2)S1 [AS252424] (first compound 5 µM, partner dose 5 µM), the cell count stood at 23.9%.

`CN(C)S(=O)(=O)c1ccc2c(c1)/C(=C/c1cc3c([nH]1)CCCC3)C(=O)N2` + Cn1cc(/C=C2\C(=O)Nc3cccnc32)c2ccccc21 [GW441756] (first compound 2 µM, partner dose 2 µM) yielded a cell count of 84.4%.

Take `C=CCn1c(=O)c2cnc(Nc3ccc(N4CCN(C)CC4)cc3)nc2n1-c1cccc(C(C)(C)O)n1` + O=C1NC(=O)/C(=C/c2ccc(-c3ccc(F)cc3O)o2)S1 [AS252424] (first compound 0.1 µM, partner dose 5 µM): the cell count was 97.5%.

Take `C=CCn1c(=O)c2cnc(Nc3ccc(N4CCN(C)CC4)cc3)nc2n1-c1cccc(C(C)(C)O)n1` + COc1ccc(-c2ccc3c(N4CCOCC4)nc(N4C[C@@H](C)O[C@@H](C)C4)nc3n2)cc1CO [KU0063794] (first compound 0.1 µM, partner dose 0.1 µM): the cell count was 57.1%.

In turn, `CO[C@@H]1[C@H](N(C)C(=O)c2ccccc2)C[C@H]2O[C@]1(C)n1c3ccccc3c3c4c(c5c6ccccc6n2c5c31)C(=O)NC4` [Midostaurin] + O=S(=O)(c1ccccc1)N(CC(F)(F)F)c1ccc(C(O)(C(F)(F)F)C(F)(F)F)cc1 [T0901317] (first compound 0.4 µM, partner dose 7 µM) displayed a cell count of 46.5%.

In turn, `C[C@]1(c2nc3c(C(N)=O)cccc3[nH]2)CCCN1` [Veliparib] + Cc1cc([N+](=O)[O-])ccc1NS(=O)(=O)c1cc(Cl)ccc1Cl [FH535] (first compound 7 µM, partner dose 5 µM) registered a cell count of 70.3%.

`Cc1nc(Nc2ncc(C(=O)Nc3c(C)cccc3Cl)s2)cc(N2CCN(CCO)CC2)n1` [dasatanib] + O=c1cc(-c2cccc3c2Sc2ccccc2S3)oc(N2CCOCC2)c1 [KU55933] (first compound 0.02 µM, partner dose 5 µM) yielded a cell count of 64.4%.

Compound `Cc1nc(Nc2ncc(C(=O)Nc3c(C)cccc3Cl)s2)cc(N2CCN(CCO)CC2)n1` [dasatanib] + COc1ccc(-c2ccc3c(N4CCOCC4)nc(N4C[C@@H](C)O[C@@H](C)C4)nc3n2)cc1CO [KU0063794] (first compound 0.02 µM, partner dose 0.1 µM) registered a cell count of 79.5%.

Consider `CN(C)S(=O)(=O)c1ccc2c(c1)/C(=C/c1cc3c([nH]1)CCCC3)C(=O)N2` + COC(=O)c1sccc1S(=O)(=O)Nc1ccc(Nc2ccccc2)cc1OC [GSK0660] (first compound 2 µM, partner dose 5 µM), for which the cell count is 94.6%.

Compound `CN(C)S(=O)(=O)c1ccc2c(c1)/C(=C/c1cc3c([nH]1)CCCC3)C(=O)N2` + COc1cc2ncnc(Nc3ccc(Oc4ccccc4)cc3)c2cc1OC [SrcI1] (first compound 2 µM, partner dose 10 µM) gave a cell count of 57.2%.

Consider `NCC(=O)Nc1ccc(-n2nc(C(F)(F)F)cc2-c2ccc3c(ccc4ccccc43)c2)cc1` + CC(C)CCN1c2nc(Nc3cc(F)c(O)c(F)c3)ncc2N(C)C(=O)C1C [BID1870] (first compound 5 µM, partner dose 1 µM), for which the cell count turned out to be 33.6%.

Compound `NC(=O)Nc1cc(-c2cccc(F)c2)sc1C(=O)N[C@H]1CCCNC1` + O=C(Nc1ccccc1)c1cc([N+](=O)[O-])ccc1Cl [GW9662] (first compound 0.1 µM, partner dose 10 µM) yielded a cell count of 84.8%.

`OCCn1cc(-c2cnc3nnn(Cc4ccc5ncccc5c4)c3n2)cn1` + Oc1nc(-c2ccc(C(F)(F)F)cc2)nc2c1CSCC2 [XAV939] (first compound 5 µM, partner dose 10 µM) came in with a cell count of 69.8%.

With `Cc1nc(Nc2ncc(C(=O)Nc3c(C)cccc3Cl)s2)cc(N2CCN(CCO)CC2)n1` [dasatanib] + O=C(O)C(=O)Nc1sc2c(c1C(=O)O)CCNC2 [TCS401] (first compound 0.02 µM, partner dose 8.33333 µM), the cell count was determined as 65.3%.

As for `C[C@]1(c2nc3c(C(N)=O)cccc3[nH]2)CCCN1` [Veliparib] + CC(C)CCN1c2nc(Nc3cc(F)c(O)c(F)c3)ncc2N(C)C(=O)C1C [BID1870] (first compound 7 µM, partner dose 1 µM), the cell count amounted to 64.6%.

In the case of `CO[C@@H]1[C@H](N(C)C(=O)c2ccccc2)C[C@H]2O[C@]1(C)n1c3ccccc3c3c4c(c5c6ccccc6n2c5c31)C(=O)NC4` [Midostaurin] + COc1ccc(COc2ccc(Cc3cnc(N)nc3N)cc2OC)cc1 [GW2580] (first compound 0.4 µM, partner dose 5 µM), the cell count worked out at 77.8%.

As to `NCC(=O)Nc1ccc(-n2nc(C(F)(F)F)cc2-c2ccc3c(ccc4ccccc43)c2)cc1` + COc1ccc2c(c1)CCC1C2CCC2(C)C(NCCCCCCN3C(=O)C=CC3=O)CCC12 [U73122] (first compound 5 µM, partner dose 2 µM), the cell count stood at 15.2%.

`C[C@]1(c2nc3c(C(N)=O)cccc3[nH]2)CCCN1` [Veliparib] + Oc1cc(-c2nc(-c3ccccc3)[nH]c2-c2ccncc2)ccc1Cl [L779450] (first compound 7 µM, partner dose 1 µM) registered a cell count of 72.2%.

`C[C@]1(c2nc3c(C(N)=O)cccc3[nH]2)CCCN1` [Veliparib] + COc1ccc2c(c1)CCC1C2CCC2(C)C(NCCCCCCN3C(=O)C=CC3=O)CCC12 [U73122] (first compound 7 µM, partner dose 2 µM) displayed a cell count of 58.7%.

`OCCn1cc(-c2cnc3nnn(Cc4ccc5ncccc5c4)c3n2)cn1` + O=C(Nc1ccccc1)c1cc([N+](=O)[O-])ccc1Cl [GW9662] (first compound 5 µM, partner dose 10 µM) came in with a cell count of 72.4%.

In the case of `CN(C)S(=O)(=O)c1ccc2c(c1)/C(=C/c1cc3c([nH]1)CCCC3)C(=O)N2` + O=c1cc(-c2cccc3c2Sc2ccccc2S3)oc(N2CCOCC2)c1 [KU55933] (first compound 2 µM, partner dose 5 µM), the cell count is 62.5%.

For the compound `CO[C@@H]1[C@H](N(C)C(=O)c2ccccc2)C[C@H]2O[C@]1(C)n1c3ccccc3c3c4c(c5c6ccccc6n2c5c31)C(=O)NC4` [Midostaurin] + O=c1cc(-c2cccc3c2Sc2ccccc2S3)oc(N2CCOCC2)c1 [KU55933] (first compound 0.4 µM, partner dose 5 µM), the cell count came to 78.5%.

The compound `C[C@]1(c2nc3c(C(N)=O)cccc3[nH]2)CCCN1` [Veliparib] + CCN(CC)CCCCNc1ncc2cc(-c3cc(OC)cc(OC)c3)c(NC(=O)NC(C)(C)C)nc2n1 [PD173074] (first compound 7 µM, partner dose 0.5 µM) had a cell count of 82.3%.

Regarding `NC(=O)Nc1cc(-c2cccc(F)c2)sc1C(=O)N[C@H]1CCCNC1` + COC(=O)c1sccc1S(=O)(=O)Nc1ccc(Nc2ccccc2)cc1OC [GSK0660] (first compound 0.1 µM, partner dose 5 µM), the cell count came to 98.2%.

For `CN(C)S(=O)(=O)c1ccc2c(c1)/C(=C/c1cc3c([nH]1)CCCC3)C(=O)N2` + COc1ccc(COc2ccc(Cc3cnc(N)nc3N)cc2OC)cc1 [GW2580] (first compound 2 µM, partner dose 5 µM), the cell count was 66%.

The values above are taken from the supplement of paper PMC4604168 (melanoma cell lines).
